# From PubChem BioAssay AID1159583 (ICCB-Longwood Screening Facility, Harvard Medical School, 2016)
# Where “and” joins values, the source holds several entries; their conditions need not be identical. Equal values may be shown once. Some of the results follow. Shown are side measurements of this screen, not its main read-out; they come without a call. Most of these compounds were active or inconclusive in the main read-out, so they are no random draw.
# Assay: hypoxia reporter signal reduction in M. tuberculosis – fluorescence, absorbance growth readout, primary screen (AID 1159583)
# Conditions: M. tuberculosis hypoxia-regulated fluorescent reporter, measured here: M. tuberculosis growth (absorbance), stronger effect = higher value, concentration not given here
row,SMILES,growth inhibition
1,COc1ccccc1C(CNC(=O)CN1C(=O)NC(C)(c2ccc3ccccc3c2)C1=O)N1CCCC1 (configuration not stated),75.7%
2,[O-][n+]1c2ccccc2[n+]([O-])c2cc(O)ccc21,8.96%
3,C=CCC(CC(=O)NC(CO)Cc1ccccc1)C(=O)NC(COC(=O)C(CC=C)Cc1ccc(F)cc1)Cc1ccccc1 (configuration not stated),-10.3%
4,OCC#CCSc1nnc(-c2ccccc2Br)o1,21.6%
5,CC(=O)c1nn(-c2ccc(Cl)cc2)cc1C(=O)c1ccc(C)cc1,1.5%
6,COC(=O)c1c(NC(=O)CN2C(=O)NC3(CCCCC3C)C2=O)sc2c1CCC2 (configuration not stated),52.7%
7,Cc1ccc(S(=O)(=O)Nc2c(C)n(C)n(-c3ccccc3)c2=O)cc1C(=O)OC(C)C(=O)c1ccccc1 (configuration not stated),55.1%
8,N#CC(=NNc1cccc(C(F)(F)F)c1)C(=O)c1csc(-c2cccnc2)n1,26.4%
9,O=c1oc2ccccc2nc1/C=C(\O)c1ccccc1,26.8%
10,C=C(C)[C@@H]1CC=C(CN2CCN(Cc3ccccc3)CC2)CC1,22.8%
11,O=C(NN=Cc1ccc([N+](=O)[O-])o1)C(O)c1ccccc1 (configuration not stated),52.5%
12,CC(=O)OCCNc1cc(N2CCN(C)CC2)c2noc3c2c1C(=O)c1ccccc1-3,2.38%
13,O=c1c2c(-c3ccc([N+](=O)[O-])cc3)csc2nc2n1CCC2,18.5%
14,O=C(OCC#CCSc1nnc(-c2ccc(Br)cc2)o1)c1cccs1,25.2%
15,CCN(C(=O)COC(=O)c1nc(Cl)ccc1Cl)c1c(N)n(Cc2ccccc2)c(=O)[nH]c1=O,60.7%
16,CN(CC(=O)Nc1ccccc1Br)C(=O)c1ccccc1Sc1ccccc1C#N,68.2%
17,CC1OC(OC2C(Oc3cc(O)c4c(c3)OC(c3ccc(O)cc3)CC4=O)OC(CO)C(O)C2O)C(O)C(O)C1O (configuration not stated),45.6%
18,CN1C(=O)/C(=C/c2ccc(N3CCCCCC3)o2)C(=O)NC1=S,12.8%
19,CC(C)CC1CN=C(N)N1CC1CCCN1CC(C)N1CC(Cc2ccccc2)N(CCc2ccc(Cl)c(Cl)c2)C1=N (configuration not stated),48.9%
20,O=C(CCCOc1ccc(Cl)cc1Cl)Nc1ccccc1C(=O)O,52.5%
21,CCC1=NNc2cccc3c(OC)ccc1c23,20.7%
22,COC1OC2O[C@@]3(C)CCC4C(C)CCC(C1C)[C@@]24OO3 (some centres not stated),-0.616%
23,CCc1ccc(C(C)=NNC(=O)c2ccc(-n3cnnn3)cc2)cc1,50.4%
24,CCN1/C(=C/c2ccc3cc(C)ccc3[n+]2CC)Sc2cc(C)c(C)cc21,8.86%
25,N#Cc1ccc(NCC(=O)N2CCN(S(=O)(=O)c3ccccc3)CC2)cc1,81.4%
26,CSCCC(NC(=O)c1ccccc1Br)C(=O)NNC(=O)c1ccncc1 (configuration not stated),58.8%

row,SMILES,growth inhibition
1,CCn1c(SCC(=O)NC(=O)NCc2ccco2)nc2sc(C)c(C)c2c1=O,-6.53%
2,O=C(Nc1cccc(O)c1)c1cccc(NC(=O)c2cccs2)c1,-5.34%
3,O=C(OCCCOC(=O)c1ccc([N+](=O)[O-])o1)c1ccc([N+](=O)[O-])o1,38.3%
4,Brc1ccc(OCc2nnc3n2CCC3)cc1,18.9%
5,CC(NC(=O)c1ccc(F)cc1)c1ccccc1 (configuration not stated),33.8%
6,C=C1CSc2nc(=O)c3c4c(sc3n21)CCC4,19.9%
7,O=C(NN=Cc1ccc(OCc2ccccc2)cc1)c1ccncc1,12.9%
8,COc1ccc(C(=O)Nc2nc(C)c3cc4c(cc3n2)OCO4)cc1,-48.1%
9,Cn1c2ccccc2c(=O)c2ccc(NCCc3cccs3)cc21,24.3%
10,CCC(C)NC(=O)CCC(=O)OC1O[C@H]2OC3(C)CC[C@H]4[C@H](C)CCC(C1C)C24OO3 (some centres not stated),8.48%
11,CC1CCN(C(=O)C2CCN(c3ncnc4c3nc3n4CCCCC3)CC2)CC1,50.1%
12,COc1ccc(C(=O)COC(=O)CNC(=O)c2ccc(C)s2)c(OC)c1,73.9%
13,C(=C\c1nc(N2CCCC2)c2ccccc2n1)/c1ccccc1,11.5%
14,Cn1cc(/C=C/c2cc[n+](C)cc2)c2cc(Cl)ccc21,2.27%
15,O=C(/C=C/c1cn(CC(O)CN2CCCCC2)c2ccccc12)c1ccccc1 (configuration not stated),53.2%
16,CCOC(=O)c1ccc(NC(=O)Cn2ncc(Cl)c(Cl)c2=O)cc1,18.5%
17,COc1ccc(C)cc1-n1nnnc1SC(C)C(=O)NC1CCCC1 (configuration not stated),61.6%
18,CC(=O)OCC1=C(C(=O)O)N2C(=O)C(NC(=O)COc3ccc(F)cc3)C2SC1 (configuration not stated),22.6%
19,CN(C)c1ccc(S(=O)(=O)N2CCCCC2)cc1NC(=O)CCNC(=O)c1ccccc1Cl,58.4%
20,Cc1c2ccncc2c(C)c2c1[nH]c1ccccc12,15.6%
21,CCCC1CC(C(=O)NC(C(C)Cl)C2OC(SC)C(O)C(O)C2O)N(C)C1 (configuration not stated),23% and 26.2% and 14.6%
22,Cc1cc2[nH]c3c(c[n+](C)c4ccccc34)c2cc1C,27.6%
23,CC(=O)NS(=O)(=O)c1ccc(Nc2ccc([N+](=O)[O-])c3nonc23)cc1,4.49%
24,O=C(Cn1nnc(-c2ccc(F)cc2)n1)Nc1cccc(S(=O)(=O)N2CCCC2)c1,78.1%
25,O=C(NCc1cccc(Cl)c1)c1cccc(S(=O)(=O)N2CCCCC2)c1,55.1%
26,CCN1C(=O)/C(=C2\C=Cc3ccccc3N2CC)SC1=S,6.21%

row,SMILES,growth inhibition
1,O=C(c1ccc([N+](=O)[O-])o1)N1CCc2ccccc2C1,20.2%
2,O=C(O)CCN1C(=O)/C(=C\c2ccncc2)SC1=S,23%
3,CCOC(=O)/C(C#N)=C/C=C1\C=Cc2ccccc2N1CC,12%
4,Cc1ccc(S(=O)(=O)N2CCN(C(=O)c3cc(S(=O)(=O)N4CCOCC4)c(Cl)cc3Cl)CC2)cc1,60.2%
5,CCOc1ccc2oc(C(=O)OCC(=O)N3C(C)CCCC3C)c(C)c2c1 (configuration not stated),53.7%
6,O=C(Nc1cccc(Cl)c1)c1cc(N=Nc2ccc([N+](=O)[O-])cc2Cl)ccc1O,6.64%
7,COc1cc(/C=C/c2ccc3c([N+](=O)[O-])cccc3n2)ccc1OCC(=O)O,47.2%
8,CCCN(CC(=O)Nc1ccccc1C)C(=O)CCl,21.4%
9,Cc1ccccc1NC(=O)COC(=O)c1cc(S(=O)(=O)N2CCOCC2)ccc1C,70.6%
10,CC(=O)c1cccc(NC(=O)CCCOc2ccc(C)cc2)c1,-1.34%
11,CCOc1ccccc1-c1c2cc(O)c(=O)cc-2oc2cc(O)c(O)cc12,-41.8%
12,Cc1oc(-c2cccs2)nc1CSCC(=O)N1CCC2(CC1)OCCO2,53.2%
13,CC(C)CCn1c(=O)c2ccccc2n2c(CCl)nnc12,17.3%
14,Cc1ccccc1NC(=O)CSc1ccc(-c2ccccn2)nn1,17.3%
15,CC(C)(C)C(=O)Nc1ccc2c(c1)OCCOCCOc1cc(NC(=O)C(C)(C)C)ccc1OCCOCCO2,21.7%
16,CN(C)CCCN(C(=O)c1ccc2c(c1)CCCC2)c1nc2ccc(Cl)cc2s1,25.2%
17,CN(C)CCOc1ccc(-c2c(-c3ccccc3)sc3ccccc23)cc1,30.1%
18,CC1CCC2[C@@H](C)C(=O)OC3O[C@]4(C)CCC1C32OO4 (some centres not stated),10.7%
19,CCc1nnc(NS(=O)(=O)c2ccc(Nc3ccc([N+](=O)[O-])c4nonc34)cc2)s1,7.66%
20,CCn1nc(C(=O)Nc2cccc(S(=O)(=O)N3CCCC3)c2)c2ccccc2c1=O,53.2%
21,CC(=O)c1ccc(NC(=O)c2ccc([N+](=O)[O-])o2)cc1,43.3%
22,COc1ccc(NS(=O)(=O)c2ccc(N3CCOCC3)c(N)c2)cc1,50.8%
23,COc1ccc(C2=CSC(N=Cc3ccc(F)cc3)=NN2)cc1,60.2%
24,CCOP(=O)(Oc1ccccc1)c1c([N+](=O)[O-])cc(C(F)(F)F)cc1[N+](=O)[O-] (configuration not stated),24.2%
25,COc1ccc(Cl)cc1NC(=O)C(C)OC(=O)Cn1cc(C(F)(F)F)ccc1=O (configuration not stated),62.1%
26,Cc1nc(SCC(=O)NCc2ccc3c(c2)OCO3)nc(C)c1C,53.7%

row,SMILES,growth inhibition
1,CCOC(=O)C1=C(C)N=c2sc(=Cc3cccc([N+](=O)[O-])c3O)c(=O)n2C1c1ccc(OC)cc1OC (configuration not stated),3.49%
2,Cn1c(COc2ccc(Cl)cc2)nnc1SCC(=O)NC1CC1,74.3%
3,COc1cc(C(=O)Nc2cc(S(=O)(=O)N3CCOCC3)ccc2N2CCOCC2)ccc1OC(F)F,52.7%
4,Cc1ccc(NC(=O)c2cc(S(=O)(=O)N3CCCCC3)ccc2N2CCOCC2)cc1S(=O)(=O)N(C)C,61.6%
5,CN1CCS/C1=C\C=C1/SC(=S)N(CC(=O)O)C1=O,8.01%
6,CC(=O)N1CCc2c(sc(NC(=O)c3ccc([N+](=O)[O-])o3)c2C#N)C1,14.2%
7,CCN(CC)c1ccc(/C=C2\C(=O)NC(=S)N(c3ccc(OC)cc3OC)C2=O)o1,5.48%
8,CCN(CC)c1ccc(C=C2C(=O)N(C)C(=S)N(C)C2=O)o1,7.89%
9,Fc1cccc(CON=Cc2c(-c3ccccc3)nc3ccc(Cl)cn23)c1,24.1%
10,Cc1c(C(=O)N2CCN(S(=O)(=O)c3ccc(F)cc3)CC2)oc2ccccc12,20.1%
11,CN(C)CCOc1nc(-c2ccccc2)nc2c1oc1ccccc12,14.6%
12,CCOC(=O)N1CCN(C(=O)CSc2nc(-c3cccc(C)c3)ns2)CC1,27%
13,O=C(OCC(=O)C12CC3CC(CC(C3)C1)C2)c1ccc(CO)cc1,55.5%
14,c1ccc(CSc2nnc(-c3cccnc3)o2)cc1,25.8%
15,Brc1cc(Br)c2nc3c(cc2c1)CCC3,33.8%
16,NS(=O)(=O)c1cccc(NC(=O)COC(=O)c2ccc(S(=O)(=O)N3CCOCC3)cc2)c1,56.5%
17,O=C(/C=C/c1ccc(S(=O)(=O)N2CCOCC2)cc1)NCCc1ccc(C(F)(F)F)cc1,59.8%
18,Cc1ccc(N(CCC#N)C(=O)CCl)cc1C,22.6%
19,Cc1nnc(NC(=O)CSc2ccc(-c3ccccn3)nn2)s1,-7.39%
20,O=C(COC(=O)c1ccccc1NCCO)NCC1CCCCC1,64.9%
21,CC=CC(=O)Nc1cccc(C2=NOC3(C2)CC(C(N)=O)N(C(=O)c2cc([N+](=O)[O-])cc([N+](=O)[O-])c2)C3)c1 (configuration not stated),20.2%
22,O=C(Nc1ccc(S(=O)(=O)N2CCOCC2)cc1)c1ccc([N+](=O)[O-])s1,16.7%
23,Cc1ccc(C)c(NC(=O)CN2C(=O)NC(C)(c3ccc4c(c3)OCCO4)C2=O)c1 (configuration not stated),73.4%
24,Cn1nc(C(=O)OCC(=O)NCc2ccc(Cl)cc2)c2ccccc2c1=O,68.7%
